Test results: patent CN109897111A (HANGZHOU HANSI BIOLOGICAL MEDICINE CO LTD, dated 2019)

What was measured:
[1] = target: T1, CD47抗原 (人CD47) (human, UniProt Q08722 in part, limits assumed); experiment: ELISA, CD47 coated 0.25 μg/ml
T1 construct: construct not described

[2] = target: hPD-1-his抗原 (human, UniProt Q15116 in part, limits assumed); experiment: ELISA, hPD-1-his coated 0.25 μg/ml
[3] = target: T1, CD47抗原 (人CD47); experiment: competition ELISA, CD47 coated, competitor SIRPA-his tag 0.6 μg/ml
[4] = target: hPD-1-hIgGFc抗原 (human, UniProt Q15116 in part, limits assumed); experiment: competition ELISA, hPD-1-hIgGFc coated, competitor PDL1-mIgG2aFc 0.6 μg/ml

T1 sequence (Q08722 19-139 limits assumed): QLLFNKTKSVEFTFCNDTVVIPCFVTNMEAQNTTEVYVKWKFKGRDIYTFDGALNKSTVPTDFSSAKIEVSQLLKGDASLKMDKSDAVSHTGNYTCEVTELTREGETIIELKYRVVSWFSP

B1: 双特异性抗体HX009-5 (抗PD-1/CD47) (bispecific antibody, human IgG4 S228P, kappa)
heavy: EVQLVQSGGGLVQPGGSLKLSCAASGFTFSSYGMSWVRQAPGKGLDWVATISGGGRDTYYPDSVKGRFTISRDNSKNNLYLQMNSLRAEDTALYYCARQKGEAWFAYWGQGTLVTVSAASTKGPSVFPLAPCSRSTSESTAALGCLVKDYFPEPVTVSWNSGALTSGVHTFPAVLQSSGLYSLSSVVTVPSSSLGTKTYTCNVDHKPSNTKVDKRV[human IgG4 Fc with S228P (EU numbers) not listed]GGGGSGGGGSERGETGPEE[about 120 residues not listed]
light: DIVLTQSPASLAVSPGQRATITCRASESVDNYGISFMNWFQQKPGQPPKLLIYAASNKGTGVPARFSGSGSGTDFTLNINPMEEEDTAMYFCQQSKEVPWTFGGGTKLEIKRTVAAPSVFIFPPSDEQLKSGTASVVCLLNNFYPREAKVQWKVDNALQSGNSQESVTEQDSKDSTYSLSSTLTLSKADYEKHKVYACEVTHQGLSSPVTKSFNRGEC
notes: expressed in 293 cells
**Q.** With B1 as the binder, how does the EC50 [1] read?
**A.** 0.6 nM

**Q.** And the EC50 [2]?
**A.** 0.05 nM

**Q.** And the IC50 [3]?
**A.** 21 nM

**Q.** And the IC50 [4]?
**A.** 1.5 nM
